Experimental data taken from the supplement of paper PMC4967469.

Columns and labels:
Experiment in all cases: Viability of human cancer cell lines after 72 h of drug (GDSC screen)
[1] = compound: CC(O)(CS(=O)(=O)c1ccc(F)cc1)C(=O)Nc1ccc(C#N)c(C(F)(F)F)c1 [Bicalutamide]; conditions: top dose inferred
Experimental: (§1)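 Human cancer cell lines in 384-well plates, medium with 10% serum, drug for 72 h over a 256-fold dose range (nine 2-fold or five 4-fold steps up to the top dose). Adherent lines were fixed and stained with the nucleic acid dye Syto60, suspension lines read with resazurin; signal relative to control wells, capped at 0 and 100%. One two-parameter sigmoid per drug and line, fitted in a mixed model over all curves with the slope shared within a line.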

[2] = compound: C/C(O)=C(\C#N)C(=O)Nc1cc(Br)ccc1Br [LFM-A13]; conditions: top dose 16 µM; top dose inferred
Experimental: as §1

[3] = compound: O=S(=O)(c1ccccc1)N(CC(F)(F)F)c1ccc(C(O)(C(F)(F)F)C(F)(F)F)cc1 [T0901317]; conditions: top dose 10.24 µM; top dose inferred
Experimental: as §1

[4] = compound: CC(C)c1ccccc1Cc1cc(C(=O)Nc2ccc(S(=O)(=O)c3ccccc3C(C)(C)C)cc2)c(O)c(O)c1O [TW-37]; conditions: top dose 5 µM
Experimental: as §1

[5] = compound: CCNC(=O)c1noc(-c2cc(C(C)C)c(O)cc2O)c1-c1ccc(CN2CCOCC2)cc1 [AUY922]; conditions: top dose 0.256 µM; top dose inferred
Experimental: as §1

[6] = compound: Nc1ccn([C@@H]2O[C@H](CO)[C@@H](O)C2(F)F)c(=O)n1 [Gemcitabine]; conditions: top dose 1.024 µM
Experimental: as §1

[7] = compound: S=C(NCc1ccc2c(c1)OCO2)N1CCN(c2ncnc3c2oc2ccccc23)CC1 [MP470]; conditions: top dose 20 µM; top dose inferred
Experimental: as §1

[8] = compound: Cc1ccc(Nc2cc(-c3cccc(N4C(=O)c5ccccc5C4=O)c3)ncn2)cc1NS(C)(=O)=O [KIN001-270]; conditions: top dose 20 µM; top dose inferred
Experimental: as §1

[9] = compound: Cc1cn(-c2cc(NC(=O)c3ccc(C)c(Nc4nccc(-c5cccnc5)n4)c3)cc(C(F)(F)F)c2)cn1 [Nilotinib]; conditions: top dose 2 µM
Experimental: as §1

[10] = top dose 1.024 µM, screen: GDSC drug entry 150
[11] = top dose 10 µM, screen: GDSC drug entry 1502

Cell Line	AUC [1, 10]	IC50 [1, 10]	AUC [1, 11]	IC50 [1, 11]	AUC [2]	IC50 [2]	AUC [3]	IC50 [3]	AUC [4]	IC50 [4]	AUC [5]	IC50 [5]	AUC [6]	IC50 [6]	AUC [7]	IC50 [7]	AUC [8]	IC50 [8]	AUC [9]	IC50 [9]
SW620 (large intestine, adherent)	0.989	> 1020 nM	0.989	> 10000 nM	0.988	> 16000 nM	0.975	> 10200 nM	0.622	648 nM	0.451	12 nM	0.276	16.3 nM	0.958	> 20000 nM	0.985	> 20000 nM	–	–
SW626 (ovary, adherent)	0.982	> 1020 nM	0.98	> 10000 nM	0.961	> 16000 nM	0.975	> 10200 nM	0.537	401 nM	0.555	23.2 nM	0.258	11.2 nM	0.334	395 nM	0.976	> 20000 nM	–	–
SW837 (large intestine, adherent)	0.982	> 1020 nM	0.965	> 10000 nM	0.976	> 16000 nM	0.983	> 10200 nM	0.713	1540 nM	0.584	29.2 nM	0.405	32.4 nM	0.904	> 20000 nM	0.977	> 20000 nM	–	–
SW900 (lung squamous cell carcinoma, adherent)	0.973	> 1020 nM	0.958	> 10000 nM	0.958	> 16000 nM	0.985	> 10200 nM	0.794	2730 nM	0.853	254 nM	0.649	178 nM	0.984	> 20000 nM	0.985	> 20000 nM	–	–
SW1088 (glioma, adherent)	0.968	> 1020 nM	0.935	> 10000 nM	0.946	> 16000 nM	0.981	> 10200 nM	0.583	566 nM	0.686	62.3 nM	0.79	612 nM	0.974	> 20000 nM	0.972	> 20000 nM	–	–
SW1573 (lung adenocarcinoma, adherent)	0.981	> 1020 nM	0.966	> 10000 nM	0.945	> 16000 nM	0.975	> 10200 nM	0.512	341 nM	0.662	52.8 nM	0.765	506 nM	0.907	> 20000 nM	0.978	> 20000 nM	–	–
T47D (breast, adherent)	0.977	> 1020 nM	0.927	> 10000 nM	0.959	> 16000 nM	0.954	> 10200 nM	0.608	722 nM	0.802	218 nM	0.875	> 1020 nM	0.923	> 20000 nM	0.952	> 20000 nM	–	–
TCCSUP (bladder, adherent)	0.965	> 1020 nM	0.98	> 10000 nM	0.972	> 16000 nM	0.975	> 10200 nM	0.485	283 nM	0.969	> 256 nM	0.864	> 1020 nM	0.969	> 20000 nM	0.98	> 20000 nM	–	–
TYK-nu (ovary, adherent)	0.985	> 1020 nM	0.983	> 10000 nM	0.984	> 16000 nM	0.985	> 10200 nM	0.522	360 nM	0.882	> 256 nM	0.507	66.8 nM	0.942	> 20000 nM	0.958	> 20000 nM	–	–
U031 (kidney, adherent)	0.985	> 1020 nM	0.979	> 10000 nM	0.961	> 16000 nM	0.974	> 10200 nM	0.39	154 nM	0.685	53.8 nM	0.195	7.6 nM	0.951	> 20000 nM	0.982	> 20000 nM	–	–
U-266 (myeloma, semi-adherent)	–	–	0.974	> 10000 nM	–	–	–	–	–	–	–	–	–	–	–	–	–	–	0.975	> 2000 nM
UMC-11 (lung carcinoid, adherent)	0.991	> 1020 nM	0.98	> 10000 nM	0.972	> 16000 nM	0.986	> 10200 nM	0.746	1440 nM	0.958	> 256 nM	0.956	> 1020 nM	0.826	10400 nM	0.967	> 20000 nM	–	–
VM-CUB-1 (bladder, adherent)	0.988	> 1020 nM	–	–	0.986	> 16000 nM	0.98	> 10200 nM	0.061	< 19.5 nM	0.607	31.2 nM	0.263	13.9 nM	0.84	13100 nM	0.961	> 20000 nM	–	–
WM-115 (melanoma, adherent)	0.98	> 1020 nM	0.978	> 10000 nM	0.971	> 16000 nM	0.955	> 10200 nM	0.664	998 nM	0.877	> 256 nM	0.982	> 1020 nM	0.847	20000 nM	0.97	> 20000 nM	–	–
ZR-75-30 (breast, adherent)	–	–	–	–	–	–	–	–	0.714	1750 nM	–	–	–	–	–	–	–	–	0.983	> 2000 nM

By IC50 is meant the dose at which the fit gives 50% viability; fits outside the tested doses are given as limits. The AUC spans the tested range (256-fold, ending at the top dose) of the same fit; it is 1 without any effect and falls as sensitivity rises. For part of these data: A top dose marked as inferred was calculated from the reported fits. For part of these data: Where an entry number is given, a second screen of the drug exists; the two often differ.
